# According to PubChem BioAssay AID1768 (National Center for Advancing Translational Sciences (NCATS), 2009):
# The campaign covered roughly 270,000 compounds. About 620 (0.23%) were called active. The shares of active, inactive and inconclusive entries below differ from those in the screen. Calls come from the whole dose curve; as a rule, active = well fitted inhibition curve with a large enough effect in the polarisation, with a control signal flat (not every such curve was filed as active); inconclusive = small, poorly fitted or top-dose-only effect, or effect the other way, or a change in a side signal; inactive = no such curve, though single readings can be large or run the other way; the % refers to the polarisation. Potencies beside an inconclusive call are fits to weak or partial responses and may not hold up. “Side channel” marks fits to a control or component signal instead of the main read-out.
# Biological target: Menin (Homo sapiens) (UniProt O00255)
# Sequence of UniProt O00255 (O00255 whole entry, looked up): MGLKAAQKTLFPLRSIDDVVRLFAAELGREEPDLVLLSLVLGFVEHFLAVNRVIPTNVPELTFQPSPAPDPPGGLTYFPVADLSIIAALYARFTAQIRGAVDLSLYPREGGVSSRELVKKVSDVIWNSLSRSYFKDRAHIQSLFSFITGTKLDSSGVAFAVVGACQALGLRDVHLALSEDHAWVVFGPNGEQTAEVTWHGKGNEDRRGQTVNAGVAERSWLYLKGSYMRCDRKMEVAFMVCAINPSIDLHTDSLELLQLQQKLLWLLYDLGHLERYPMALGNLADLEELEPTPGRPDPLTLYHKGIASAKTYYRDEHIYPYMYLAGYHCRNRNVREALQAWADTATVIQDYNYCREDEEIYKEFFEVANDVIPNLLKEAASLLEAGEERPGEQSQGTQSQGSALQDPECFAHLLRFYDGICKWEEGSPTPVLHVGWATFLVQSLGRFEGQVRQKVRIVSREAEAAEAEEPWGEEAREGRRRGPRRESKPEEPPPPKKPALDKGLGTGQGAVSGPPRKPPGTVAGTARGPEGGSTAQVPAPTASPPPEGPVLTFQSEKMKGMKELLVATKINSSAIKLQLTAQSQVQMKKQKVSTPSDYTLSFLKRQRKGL
# Assay: qHTS Assay for Inhibitors Targeting the Menin-MLL Interaction in MLL Related Leukemias: Competition With Texas Red Labeled MLL-derived Mutant Peptide
# Details: fluorescence polarization; series mostly up to 61.6 µM
# Potency is the fitted concentration of half-maximal effect; tags give direction and shape of the fitted curve or compound fluorescence and quenching.
row,SMILES,Potency
1,COc1c(O)c2c(=O)cc(OC)c3c4c(OC)cc(=O)c5c(O)c(OC)c6c(c(c1C[C@@](C)(O)[C@H]6C(C)=O)c23)c54,"inconclusive: 31.6 µM [fluorescent, side channel, single point]"
2,NC(=NCCc1c[nH]c2ccccc12)NC(=O)c1ccc(Cl)cc1,"inconclusive: 6.31 µM [quencher, side channel, partial curve]"
3,O=C(NC(NNc1ccc([N+](=O)[O-])cc1)(C(F)(F)F)C(F)(F)F)c1ccccc1Cl,"inconclusive: 20 µM [quencher, side channel, partial curve]"
4,O=C(Nc1cccc(Cl)c1)OCc1cn(-c2ccc(Cl)cc2)nn1,"inconclusive: 39.8 µM [inhibitor, single point]"
5,COc1ccc2nc(C)cc(NCc3ccc(F)cc3)c2c1,"inconclusive: 3.55 µM [inhibitor, full curve]"
6,COc1ccc(NC(=O)C(CC(C)C)NC(=O)C2CCCCC2)c(OC)c1 (stereo not given),"inconclusive: 15.8 µM [inhibitor, partial curve]"
7,C[C@@H](C(=O)Nc1ccc2ccccc2c1)[C@H]1C[C@]1(C)[C@H](NS(=O)(=O)c1ccc2ccccc2c1)c1ccccc1,"inconclusive: 4.47 µM [inhibitor, partial curve]"
8,CCc1ccccc1NC(=O)NNC(=O)c1ccc2ccccc2c1O,"inconclusive: 10 µM [quencher, side channel, partial curve]"
9,CS(=O)(=O)c1ccc2nc(NC(=O)C3CC(=O)N(c4ccc(F)cc4)C3)sc2c1 (stereo not given),"inconclusive: 22.4 µM [quencher, side channel, single point]"
10,OCc1cc([C@@H](O)CNCCCCCCOCCCCc2ccccc2)ccc1O,"inconclusive: 25.1 µM [fluorescent, side channel, partial curve, poor fit]"
11,O=C(CCN1C(=O)/C(=C/c2ccccc2Cl)SC1=S)NC1CCS(=O)(=O)C1 (stereo not given),"inconclusive: 25.1 µM [quencher, side channel, single point]"
12,COc1ccc(CC2(CO)CCN(C(C)Cc3ccc(Cl)cc3)CC2)cc1 (stereo not given),"inconclusive: 10 µM [fluorescent, side channel, partial curve]"
13,Fc1ccc2c(c1)c1n[nH]c(=S)nc1n2CCc1ccccc1,"inconclusive: 39.8 µM [quencher, side channel, single point]"
14,Cc1ccc(-c2nc(CS(=O)(=O)CC(=O)NCc3cccc(F)c3)c(C)o2)cc1,"inconclusive: 20 µM [fluorescent, side channel, single point]"
15,Oc1ccccc1C=Nc1ccccc1-c1nc2ccccc2[nH]1,inactive
16,Cn1c(=O)c(=O)n(C)c2cc(S(=O)(=O)N3CCN(c4ccccc4F)CC3)ccc21,"inconclusive: 35.5 µM [fluorescent, side channel, single point]"
17,CC(C)CN(CCCNC(=O)CN1C(=O)COc2ccc(S(=O)(=O)N3CCC(C)CC3)cc21)CC(C)C,"inconclusive: 15.8 µM [inhibitor, single point]"
18,Cc1ccc(NC(=O)CN2CCN(Cc3ccccc3)CC2)c(Br)c1,"inconclusive: 0.631 µM [inhibitor, partial curve, poor fit]"
19,CC(C)C(NC(=O)c1ccccc1)C(=O)OCc1cc([N+](=O)[O-])cc2c1OCOC2 (stereo not given),inactive
20,COc1ccc(OC)c(S(=O)(=O)N2CCC(C(=O)NC3CCCCCC3)CC2)c1,"inconclusive: 3.55 µM [inhibitor, partial curve]"
21,CN(C1CCCCC1)S(=O)(=O)c1ccc(C(=O)Nc2sc3c(c2C(N)=O)CC(C)(C)NC3(C)C)cc1,"inconclusive: 39.8 µM [fluorescent, side channel, single point]"
22,COc1cccc(C(=O)Nc2ccc(C(=O)NCC(C)C)cc2)c1,"inconclusive: 39.8 µM [fluorescent, single point]"
23,CCOC(=O)c1ccc(Nc2cnc3ccccc3n2)cc1,"inconclusive: 12.6 µM [quencher, side channel, partial curve]"
24,C=C1CCC[C@]2(C)C[C@H]3OC(=O)C(CN(C)CC(OC)OC)[C@H]3CC12 (stereo not given in full),"inconclusive: 39.8 µM [inhibitor, single point]"
25,CN(C)c1ccc(/C=N/Nc2nc3ccccc3o2)cc1,"inconclusive: 17.8 µM [quencher, side channel, partial curve]"
26,COc1cccc(N2CCN(C(=S)NCCc3ccccc3)CC2)c1,"inconclusive: 12.6 µM [quencher, side channel, partial curve]"
27,c1cc2c(cc1Nc1nc(-c3ccc4c(c3)OCO4)cs1)OCCO2,"inconclusive: 7.08 µM [quencher, side channel, partial curve]"
28,C=CCSc1nnc2nc3c(nn12)c1cc(C)ccc1n3CC=C,"inconclusive: 10 µM [inhibitor, partial curve]"

row,SMILES,Potency
1,CCOc1ccc(C(C)=O)cc1N1C(=O)C2C3C=CC(C3=C(C)C)C2C1=O (stereo not given),"inconclusive: 28.2 µM [fluorescent, side channel, single point]"
2,CC1=CC(=C(C#N)c2nc3ccccc3s2)C=C(C)N1Cc1ccco1,"inconclusive: 5.62 µM [quencher, side channel, partial curve]"
3,CCn1c(C)cc(/C=C2\NC(=O)N(CC(=O)Nc3ccc(F)cc3)C2=O)c1C,inactive
4,COCc1cc(=O)[nH]c(N2CCN(Cc3ccc4c(c3)OCO4)CC2)n1,"inconclusive: 14.1 µM [inhibitor, single point]"
5,CCN1/C(=C\C=C2\C(=O)N(c3ccccc3)C(=S)N2C)Sc2ccccc21,"inconclusive: 25.1 µM [fluorescent, side channel, partial curve]"
6,S=C(c1ccc(-c2ccc(Cl)c(Cl)c2)o1)N1CCOCC1,"inconclusive: 39.8 µM [quencher, side channel, single point]"
7,CN(C(=O)CCCOc1ccc2[nH]c(=O)ccc2c1)C1CCCCC1,"inconclusive: 14.1 µM [fluorescent, side channel, partial curve]"
8,C=C1C=CS(=O)(=O)N(Cc2ccccc2)C1,inactive
9,CCOC(=O)CSc1nc2ccc(NC(=O)CSc3nnnn3Cc3ccccc3)cc2s1,"inconclusive: 7.94 µM [quencher, side channel, partial curve]"
10,Clc1ccc(-c2noc(CN(Cc3ccccn3)CC3CCCO3)n2)cc1 (stereo not given),"inconclusive: 7.94 µM [fluorescent, side channel, partial curve]"
11,COC(=O)c1ccccc1NC1=C/C(=N\S(=O)(=O)c2cccs2)c2ccccc2C1=O,"inconclusive: 2.82 µM [quencher, side channel, partial curve]"
12,COc1ccccc1/C=C1\SC(=O)N(CCC(=O)NNC(=O)c2ccccc2Cl)C1=O,"inconclusive: 35.5 µM [inhibitor, partial curve]"
13,NC(=O)CC(NC(=O)c1ccc(Br)cc1)c1ccc(N2CCN(c3ccccc3)CC2)c([N+](=O)[O-])c1 (stereo not given),"inconclusive: 14.1 µM [quencher, side channel, partial curve]"
14,COc1ccccc1/C=C1\SC(=S)N(CCC(=O)NNC(=O)c2ccccc2OC)C1=O,"inconclusive: 22.4 µM [quencher, side channel, partial curve]"
15,O=C(/C=C/c1ccc(I)cc1)c1ccc(B(O)O)cc1,inactive
16,CC(C)OC(=O)c1cc2c(ccn2C)n1CC(=O)N(Cc1ccccc1)c1ccccc1,inactive
17,O=C(O)c1cccc(NC(CNS(=O)(=O)c2ccc(Cl)cc2)c2ccccc2)c1 (stereo not given),"inconclusive: 25.1 µM [quencher, side channel, single point]"
18,Nc1ccc2nc(CCCCCCc3nc4ccc(N)cc4[nH]3)[nH]c2c1,"inconclusive: 3.16 µM [quencher, side channel, full curve, poor fit]"
19,CC1(C)OC(C(O)(c2cccc3c2oc2ccccc23)c2cccc3c2oc2ccccc23)C(C(O)(c2cccc3c2oc2ccccc23)c2cccc3c2oc2ccccc23)O1 (stereo not given),"inconclusive: 1.12 µM [inhibitor, partial curve]"
20,NC(=O)c1ccccc1NC(=O)Nc1cccc(Cl)c1,"inconclusive: 15.8 µM [quencher, side channel, partial curve]"
21,Cc1c(C(=O)O)[nH]c2c1C(=O)CC(c1ccc(C(C)(C)C)cc1)C2 (stereo not given),"inconclusive: 39.8 µM [quencher, single point]"
22,CCOC(=O)CSc1nc2sc3c(c2c(=O)n1-c1ccc(C)cc1)CCN(C)C3,"inconclusive: 20 µM [inhibitor, partial curve, poor fit]"
23,CCOC(=O)c1c(C)[nH]c(C(=O)OC(C)C(=O)Nc2ccccc2OC)c1C (stereo not given),"inconclusive: 39.8 µM [fluorescent, side channel, single point]"
24,CCOc1nc(C)cc(C)c1S(=O)(=O)c1cccc(Cl)c1,"inconclusive: 31.6 µM [inhibitor, partial curve]"
25,O=C1CCCc2nc3c(cc21)C(O)Oc1c-3ccc2ccccc12 (stereo not given),"inconclusive: 39.8 µM [inhibitor, single point]"
26,Cc1ccc(-c2nc3ccc([N+](=O)[O-])cc3[nH]2)cc1,"inconclusive: 20 µM [quencher, side channel, partial curve]"
27,O=[N+]([O-])c1cc([N+](=O)[O-])c2oc(-c3ccccc3)c(Br)c2c1O,"inconclusive: 22.4 µM [quencher, side channel, single point]"
